Assay results: US9428551B2, “Antimicrobial peptides” (priority 2009, dated 2016)

Tests used:
heat stability = settings: exposure to 80° C. for 10, 15, 30 and 60 minutes
[1] = enzyme stability of the peptide (activity in AU/ml after enzyme treatment); settings: partially purified peptide treated with RNase, DNase, lysozyme, lipase and α-amylase, compared to peptide in molecular water

peptide NI01: antimicrobial peptide (bacteriocin, SEQ ID NO:3) obtained from a Staphylococcal culture; C terminal sequence QSFEWIYKQIKKLWA (MAAFMKLIQFLATKGQKYVSLAWKHKGTILKWINAGQSFEWIYKQIKKLWA; NOI01 polypeptide)
activity retained (heat stability): 100% | effect on activity of enzyme treatment [1]: no effect
